± gives the standard deviation of the averaged measurements. The list shows a part of the results.
These sequences were tested on PfAP2-G AP2 domain (GST-tagged) (assay: gcPBM binding intensity (ln(normalized median fluorescence intensity)); higher = stronger DNA binding).
In short: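 An Agilent 4 × 180k array carrying primer-extended double-stranded 36-bp intergenic genomic probes and negative controls received GST-tagged P. falciparum DNA-binding domains expressed in E. coli, about 25 μg on average, for 1 h. The binding buffer contained 1× PBS, 1% milk, 0.2 mg/ml BSA, 0.5% salmon testes DNA and 0.03% Triton X-100. Binding intensity is the top Masliner-normalised natural-log median intensity across replicate spots of either probe orientation, read after Alexa488 anti-GST antibody staining and a 488 nm scan.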

Sequence | gcPBM binding intensity (ln)
TTATTTGTTTGTTGGATGCTTTTTTTTTTTTTTTTT [CACACA_negctrl_site1697] | 10.5 ± 0.41
TACATATATATAATATGTACTTATAATATGTATTTA [XGTACX_site2162] | 11.2 ± 0.73
AAAAGTGATAATAAGAGTACATAAAAAATTTATTAT [XGTACX_site8037] | 11.4 ± 0.92
ATTAAGGAAAAATTATGTACACAAAAACATATAACA [XGTACX_site2901] | 11.5 ± 0.87
TATACATGTTCAATTTGTACATATATAAATATATAT [XGTACX_site3554] | 11 ± 0.52
ATTTTTTTTTTTTTATGTACATATTAAAAAAAATAT [XGTACX_site1829] | 11.5 ± 0.9
GGTATTACTTTTAGCTGTACTTATTTAAAAGTCAAA [XGTACX_site530] | 11.5 ± 0.95
ATTTTTACTTTTTATGCATGCTATATTTTCAACCAT [TGCATGCA_site871] | 10.1 ± 0.22
ATTCAAAAAAATAAAATAAACATAAATAAACATAAA [TGCATGCA_negctrl_site390] | 9.655 ± 0.007
CTACACAAGCATTAAACACACAAAAGGGATACTTTG [CACACA_site1083] | 10.14 ± 0.071
GGAAAAAGAAATTAATGTACATGTGGATGTATGAGG [XGTACX_site5468] | 11.2 ± 0.53
AAAATATTTAAGCATTGTACATATTTTTACAAATAC [XGTACX_site5349] | 11 ± 0.68
AAAATTCATCCAACAAGTACATAAATATAATATTAT [XGTACX_site4596] | 11.3 ± 0.79
TTTAATTCCCATATATGTACACAATTTCTTCTATAA [XGTACX_site1465] | 11.3 ± 0.71
AGACTTTTTATGAGCACACACATATATTATGGAGTA [CACACA_site1040] | 10.3 ± 0.15
ATAAATTCATTATATTGTACAAACAAATGAAAAAAA [XGTACX_site8304] | 10.9 ± 0.71
ATACATAAATATTATTGTACATATATAATATTAATA [XGTACX_site3514] | 11 ± 0.66
AAGAACAGATAAAATCGTACGTGAAACATGAACTTG [XGTACX_site7793] | 10.8 ± 0.45
TCTGAAATTTTAGGGGTGCCTGGGACTAAAGAAACG [GTGCAC_site9785] | 10.4 ± 0.39
TAGAAACCATAAAAATGTACTTAAAAATAGACAATT [XGTACX_site5007] | 11.2 ± 0.78
ATGTAAATATTTTGTATGCACTTTGATGCATCTTTT | 9.9 ± 0.014
TTTTTTTCTTCTTTTCTCTTAAAAATATTGAATATT [CACACA_negctrl_site1762] | 9.74 ± 0.14
TAAGAAATTGAGCGCACACATACATCTGTGGGATGG [CACACA_site1548] | 10.44 ± 0.085

Sequence | gcPBM binding intensity (ln)
ATTGTGGATATTCTTACACACAAATTTATTTATAAA [CACACA_site7267] | 9.91 ± 0.2
AAAAAAAAAAAAAAAAAAAAAAAAAAAAAAAAAAAG [CACACA_negctrl_site292] | 11.3 ± 0.72
TCAAGAGTTATATAAACACACATACATACAGACATA [CACACA_site6998] | 10.02 ± 0.064
TTTTTTTTTTTTGAGGTGCATATATCAGATCAATAT | 10.1 ± 0.5
CATATATTAATATGTACACACATTAATAAAAAAAAA [CACACA_site7504] | 11.4 ± 0.83
AGCAAAAAAAAAAAAAAAAAAAAAATAATAAAAAAT [TGCATGCA_negctrl_site202] | 9.36 ± 0.28
GTTTTCTAGTGGGGGTGTACATATTTATATTTAATA [XGTACX_site8378] | 11.7 ± 0.86
ATATATATATAATAAGTGCAAAAAAAAGAAAAAAAT | 10.1 ± 0.13
AGTATTCATAAAAATACACACATGGAAAAATAAAAT [CACACA_site1454] | 9.995 ± 0.078
TATTTTATTTATTGAAGTACATTATACAAAAATAAA [XGTACX_site4824] | 11.2 ± 1
AGCCACTTAAAATACACACACACCAAAAAAAAAAAA [CACACA_site5497] | 10.1 ± 0.45
TTTTCCAGTAAATATTTTTTTATAATATTTATATAT [CACACA_negctrl_site387] | 9.685 ± 0.007
TATTCGAACAAAAATACATGCACATATGCATAATAA [TGCATGCA_site171] | 9.84 ± 0.042
AATAATTTCCAAAAATGTACATATATTTACATATAT [XGTACX_site1790] | 10.9 ± 0.52
ATTTTAACTCCCCTTAATCTATTGTATATATATATA [CACACA_negctrl_site208] | 9.9 ± 0.42
TAATAAATGTTATTAGTGCATAATAGATAATATATT | 9.96 ± 0.18
AAATAAAATAAAATACGTACCTATTGTGCGTATTAA [XGTACX_site2912] | 11.1 ± 0.69
ATAAATATAGGACACACACACATATTATATATATAT [CACACA_site5658] | 10.9 ± 0.51
AAATATAATATATGCACACATACATACAGATATATA [CACACA_site4235] | 10 ± 0.13
GTTATATTCCTACAGAGTACATAAAAATGCACATCA [XGTACX_site1948] | 11.2 ± 0.91
ATAATATAAATATGCACACAAATTATTACCCAAAAA [CACACA_site2524] | 10.3 ± 0.13
AAATGAACAAGTGGCACACACACATCATAACTAATT [CACACA_site5730] | 10.4 ± 0.31
TATATAAAAAAACAAAGTACATGTTCTTAATCATTT [XGTACX_site8446] | 10.9 ± 0.54

Sequence | gcPBM binding intensity (ln)
TATATATATATATACACACACACACCGATATATATA [CACACA_site8813] | 10.1 ± 0.38
CACGCGAACATACATACACACACATATATATATATG [CACACA_site7951] | 10.4 ± 0.2
CAAAATATATATACCACACACACATACCTCTATTTG [CACACA_site1853] | 10.2 ± 0.16
ATATATTTTTTCTTAACACACATATATAAAATAAAA [CACACA_site3500] | 10 ± 0.17
CTAGCAAATACATACACACACACACCGATACAGATA [CACACA_site5853] | 10.1 ± 0.11
ATATATACATATATTACACACTTCTTATTCTAAGAA [CACACA_site3022] | 10 ± 0.19
CATACATACATACATACACACATACCTATATTTATA [CACACA_site6769] | 10.6 ± 0.27
TTAATAACAAAATAAACACACATATATAAATACCCA [CACACA_site4960] | 10 ± 0.11
TCCATAAAAATGGATACACACACATAATATATATAT [CACACA_site9207] | 10.3 ± 0.35
TATAATATAAGGATCACACACAAACACCCATATATA [CACACA_site4468] | 10.4 ± 0.21
TTCACATACAGAAACACACACATATATATAAATTAA [CACACA_site3705] | 10.02 ± 0.099
TGTATGATAACTATAGTGCATTTGGTAATTTTTCCA | 10.06 ± 0.085
TTGCCCATTTAATTAACACACAAATGTTTATATTCT [CACACA_site6488] | 10.04 ± 0.049
TTTGAAATAAGCAAATGTACATTATTATTAAATATA [XGTACX_site6158] | 10.8 ± 0.42
AATAATATATATTACACACGCATCGTTCATTTATTT [CACACA_site2391] | 9.9 ± 0.16
TATTTCATGATACAATGTACATGTATATATGATACC [XGTACX_site5057] | 11 ± 0.57
ATTTATTTGTTTGTTTTTTTTACGATTTTTATTTTT [CACACA_negctrl_site1138] | 9.79 ± 0.13
CGTATTTATATAATTACACACCATATTTTAATTATT [CACACA_site5960] | 9.965 ± 0.078
ATAAACAATTAACAAACATGCAAATTTTAAATGTGT [TGCATGCA_site919] | 9.74 ± 0.085
AATAGTATTCACAAAGTTTTATATAATAAATATAAA [GTGCAC_negctrl_site154] | 9.84 ± 0.2
TAATTTTTTTTTCTTGTACACACTATTTTATAATTT [CACACA_site4078] | 11.4 ± 0.67
ATCTATGATATATACACACACATGTATAAATAAATA [CACACA_site7012] | 9.945 ± 0.035
TTTTTTTTTTTGATTTGTACACAAAAAAAATATATG [XGTACX_site4547] | 11.3 ± 1

Sequence | gcPBM binding intensity (ln)
CTTTCATATGTTTTAACACACACGCATATATTATAT [CACACA_site8615] | 10.13 ± 0.064
AGATATATGGACGACTCACACATTTAAATTCATTCA [CACACA_site6047] | 10.9 ± 0.55
TTTTTTTTTTTTTTTTGTACATATTTTTAAACTATA [XGTACX_site2897] | 11 ± 1.1
TTTTTTTTTTGATGTTGTACATATATATTATATATA [XGTACX_site6377] | 11.3 ± 0.83
TAAATACACCCTAGACGTACATAAAAATTTAGTATG [XGTACX_site2512] | 11.6 ± 0.76
ATTAATAATGAGTTATGTACATACATATTTTAAGAT [XGTACX_site7543] | 11.1 ± 0.59
AGAAATGAAATATACACACATACATATATACATATA [CACACA_site4033] | 9.725 ± 0.078
ACCCTCATATTATAGACACACACAAAAAAAATAAAA [CACACA_site7941] | 10.2 ± 0.49
TTTTTTTTTTTAATTTGTACGAATCTTTTTATTTTA [XGTACX_site4516] | 10.8 ± 0.42
ATATTTATATATATGTGTACATATAGAAACATAAAA [XGTACX_site4355] | 11.3 ± 0.93
AAAAACAAACTGTGCATGCACCAAAAAAAAAAAAAA | 9.92 ± 0.38
TAAACATACATATACACACACACACCCACACCCACA [CACACA_site492] | 10.4 ± 0.41
TGTCCTTATGGGCACACACACATATAAGAAATTTAA [CACACA_site3187] | 10.7 ± 0.3
TAAAAATAGTATACAACACACGAGGGAAAATAAAGT [CACACA_site3837] | 10.34 ± 0.099
ATTTTTTTATAAAATTTTTATATATTATATAAATAT [GTGCAC_negctrl_site163] | 9.765 ± 0.021
TATCGAGCACGGCGTGTGGAGTTACAAAGAGGAGAA [CACACA_negctrl_site40] | 9.89 ± 0.12
AAATGTATAATATTTTCACACACAAGAAAAAAGAAA [CACACA_site9195] | 9.825 ± 0.049
GCCAATAAAGATGTGGTGCATTATATATATATATAT | 10.2 ± 0.3
TATATCTCTTTATTCACACATACGTTTTAAAATAAT [CACACA_site5542] | 10.2 ± 0.13
TATAAATAAAGACACACACACACACCGTATAATTAC [CACACA_site7829] | 10.19 ± 0.042
TAATAAAACATATATACACACATTAGATATACATAT [CACACA_site6897] | 9.92 ± 0.057
